Experimental data from PubChem BioAssay AID485344 (National Center for Advancing Translational Sciences (NCATS), 2010).
Out of some 340,000 compounds screened, about 6,900 (2%) were called active. Rule as the data show it: active = inhibition above about 30%; inactive = below that, where a call was filed. The list shows a part of the results, in another mix than the full data. The source gives no active or inactive call for entries shown without one.

target: D(2) dopamine receptor (Homo sapiens) (UniProt P14416); test: HTS Assay for Allosteric Antagonists of the Human D2 Dopamine Receptor: Primary Screen for Antagonists; conditions: HEK293 TREx D2 cells, calcium flux, dopamine EC80; at 10 µM; stronger effect = higher value; also: 0% is about no effect
Sequence of UniProt P14416 (P14416 whole entry, looked up): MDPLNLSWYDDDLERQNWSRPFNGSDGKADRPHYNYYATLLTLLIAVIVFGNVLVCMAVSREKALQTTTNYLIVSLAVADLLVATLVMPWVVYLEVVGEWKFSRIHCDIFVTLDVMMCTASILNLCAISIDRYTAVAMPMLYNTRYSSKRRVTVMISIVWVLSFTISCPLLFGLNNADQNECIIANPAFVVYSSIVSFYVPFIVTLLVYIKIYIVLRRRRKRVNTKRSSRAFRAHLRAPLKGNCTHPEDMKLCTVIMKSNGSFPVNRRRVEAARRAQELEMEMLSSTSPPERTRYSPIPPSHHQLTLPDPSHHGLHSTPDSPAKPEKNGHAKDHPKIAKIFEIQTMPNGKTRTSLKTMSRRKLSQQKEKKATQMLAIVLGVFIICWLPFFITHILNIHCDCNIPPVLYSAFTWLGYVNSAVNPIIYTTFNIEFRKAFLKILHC
How it was run: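 Inhibition of EC80 dopamine-driven calcium flux, recorded kinetically, defines activity here; cells are a tetracycline-induced HEK293 T-REx line expressing force-coupled D2.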

| SMILES | inhibition |
| --- | --- |
| CN1CC(=O)N(CC(=O)Nc2cccc(C#N)c2)c2ccccc2C1=O | -0.0575% |
| O=C(Nc1ccccc1C(F)(F)F)C1(S(=O)(=O)c2ccc(Cl)cc2)CC1 | -3.7% |
| COc1ccc(OC)c(NC(=O)C2CCCN(S(=O)(=O)c3ccc4[nH]c(=O)ccc4c3)C2)c1 (stereo unspecified) | -2.25% |
| Cc1ccc2nc(CSc3nnc(NC(=O)CC(C)C)s3)cc(=O)n2c1 | -3.99% |
| Cc1ccc(Cn2c(CN3CCC(C(=O)NCc4cccnc4)CC3)cc3ccccc32)cc1 | -9.84% |
| CCOc1ccc(CNC(=O)CCC(=O)N2Cc3ccccc3Oc3ncccc32)cc1 | 10.1% |
| Cc1ccn2c(Nc3ccccc3C)c(-c3ccncc3)nc2c1 | -3.99% |
| CCN(CCN(C)C)C(=O)Cn1ncc2c([nH]c3ccc(C)cc32)c1=O | -3.08% |
| Cc1ccc(CNC(=O)C2CCN(Cc3nc(-c4ccccc4C)oc3C)CC2)cc1 | -10.5% |
| CCCCn1c(CN2CCN(c3ccc(OC)cc3)CC2)nc2c1c(=O)[nH]c(=O)n2C | 8.03% |
| Cc1cccc(NC(=O)CSc2nnc(CNC(=O)c3cccc(C)c3)n2-c2ccccc2)c1 | -12.3% |
| Cc1ccccc1Cn1c(-c2cccs2)nc2ccccc21 | 4.64% |
| COc1ccc(-c2noc(CN(C(=O)c3ccccc3Cl)C(C)C)n2)cc1 | -3.85% |
| O=C(CCn1c(=O)c2cccn2c2cccnc21)N1CCN(c2ccc(F)cc2)CC1 | -5.76% |
| COc1ccc(C(=O)Nc2ccc3nc(SCC(=O)N4CCCC4)sc3c2)cc1 | -11.1% |
| CCCC(=O)Nc1nnc(SCc2cc(=O)n3ccccc3n2)s1 | -2.58% |
| COc1ccccc1CCNC(=O)Cn1ccc2cc(S(=O)(=O)N3CCCCC3)ccc21 | -1.56% |
| O=C(NC1CCCCC1)c1ccc2c(c1)N(Cc1ccccc1F)C(=O)c1ccccc1S2 | 10.6% |
| Cn1c(=O)c(=O)n(C)c2cc(S(=O)(=O)N3CCCC3C(=O)Nc3cccc(F)c3)ccc21 (stereo unspecified) | 12.5% |
| CCOc1ccccc1NC(=O)c1ccc2c(c1)CCN2S(C)(=O)=O | 9.7% |
| COc1cc(C2c3c(-c4cc(C)ccc4O)n[nH]c3C(=O)N2Cc2cccnc2)cc(OC)c1OC (stereo unspecified) | 3.03% |

| SMILES | inhibition |
| --- | --- |
| Cc1ccc(-n2c(SCC(=O)N3CCc4ccccc43)nc3c([nH]c4ccccc43)c2=O)cc1 | 8.67% |
| CCn1cc2nc(SCC(=O)Nc3cc(OC)ccc3OC)n(Cc3ccc(Cl)cc3)c(=O)c2n1 | 5.36% |
| O=C(Nc1ccc(OC(F)(F)F)cc1)c1cc2c(=O)n3ccccc3nc2s1 | -13.8% |
| CCS(=O)(=O)N1CCc2cc(C(=O)Nc3cc([N+](=O)[O-])ccc3C)ccc21 | 3.54% |
| CCOC(=O)c1c(NC(=O)/C(C#N)=C/c2ccc(OC)cc2)sc2c1CCC2 | 11% |
| CCc1ccc(NC(=O)c2sc(-n3nc(C)c(CCC(C)C)c3C)nc2C)cc1 | 14.2% |
| Cc1cccc(C)c1OCC(=O)N(Cc1ccccc1F)C1CCS(=O)(=O)C1 (stereo unspecified) | 5.32% |
| COc1ccc(C(=O)N2CC(=O)Nc3ccc(Br)cc3C2c2ccc(F)cc2)cc1OC (stereo unspecified) | 9.26% |
| COc1ccc(NC(=O)c2ccc3oc(=O)c(S(=O)(=O)c4ccc(F)cc4)cc3c2)cc1OC | -1.18% |
| CCOC(=O)c1cc(-c2ccc(OC)cc2)n(CCC(=O)NCCN2CCC(C)CC2)c1C | active: 66.4% |
| CCn1cc(S(=O)(=O)N2CCN(Cc3cccc(Cl)c3)CC2)cn1 | active: 33.5% |
| COc1ccc(CCn2c(C)nc3c(c(=O)c4ccccc4n3C)c2=O)cc1 | active: 49.3% |
| Cc1ccc(-n2cnc3cc(C(=O)NCCC4=CCCCC4)ccc32)c(C)c1 | 8.86% |
| Cc1cc(NC(=O)c2ccccc2F)ccc1-c1nc2ccccc2s1 | -5.47% |
| CCCOc1ccc(NC(=O)CC2C(=O)N(CC)C(=S)N2CCCN2CCN(Cc3ccccc3)CC2)cc1 (stereo unspecified) | active: 33.4% |
| Cc1ccc(Nc2nc(-c3ccccc3)nc3ccccc23)cc1 | 4.76% |
| Cc1c(C(=O)Nc2ccc(F)cc2F)oc2c1-c1nn(Cc3c(F)cccc3Cl)cc1CC2 | -17.4% |
| O=C(NC1CC(=O)N(c2ccc(F)cc2)C1)C1CCCC1 (stereo unspecified) | 0.825% |
| Cc1ccc(Cc2cnc(NC(=O)c3ccc4c(c3)CC(c3ccccc3)OC4=O)s2)cc1 (stereo unspecified) | 22.8% |
| CC(=O)c1ccc(S(=O)(=O)Nc2ccc(-c3cn4c(C)csc4n3)cc2)cc1 | 18.8% |
| COc1ccc(C)cc1NC(c1nnc(-c2ccccc2)o1)c1ccc(F)cc1Cl (stereo unspecified) | 6.46% |

| SMILES | inhibition |
| --- | --- |
| CCOC(=O)c1c(NC(=O)c2ccc(C)cc2)sc2c1CCCCC2 | -15% |
| C/C(=N\NC(=O)c1nnn(-c2nonc2N)c1CN1CCCCC1)c1ccccc1O | active: 30.1% |
| CCc1ccc(N2CC(c3nnc(NC(=O)c4ccco4)s3)CC2=O)cc1 (stereo unspecified) | 12.6% |
| O=C(NCCN1CCN(c2ccccc2F)CC1)c1ccc2nc3ccccc3c(=O)n2c1 | active: 56.7% |
| N#Cc1ccccc1NC(=O)CSc1nc(-c2ccccc2)cc(C(F)(F)F)c1C#N | -0.183% |
| COc1ccc(-c2cn3c(n2)sc2cc(C(=O)NCCC4=CCCCC4)ccc23)cc1 | -3.12% |
| COc1ccc(OC)c(NC(=O)C(C)n2c(=O)cc(C)c3c(C)nn(-c4ccccc4)c32)c1 (stereo unspecified) | -7.28% |
| Cc1ccc(CNC(=O)c2c[nH]c3ccc(S(=O)(=O)N4CCOCC4)cc3c2=O)cc1 | 0.0038% |
| Cc1cc(C)n(CCc2nc3c4ccccc4nc(SCc4ccc(F)cc4)n3n2)n1 | 9.68% |
| O=c1c2cnn(-c3ccc(F)cc3)c2ncn1Cc1ccccc1Cl | -7.4% |
| Cc1ccc(NC(=O)Cn2c(=O)c3ccc(Cl)cc3n3nncc23)cc1 | -9.48% |
| CCNC(=O)c1ccc(C)c(-n2c(C)nc3cccnc32)c1 | 1.69% |
| O=C(Cn1c(-c2cccs2)cc2ccccc21)N1CCN(c2ccc(Cl)cc2)CC1 | 17.4% |
| Cc1ccc(S(=O)(=O)NC(=O)NN2CCCCCC2)cc1 | active: 34.4% |
| CCn1c(Cc2ccccc2)nnc1SCC(=O)Nc1ccc(N2CCOCC2)c(Cl)c1 | active: 39.2% |
| Cc1nc(-c2ccc(S(=O)(=O)N3CCN(c4cccc(C(F)(F)F)c4)CC3)cc2)co1 | -16.9% |
| CC1CCN(C(=O)c2cc3c(=O)n(C)c4cc(Cl)ccc4c3s2)CC1 | -0.76% |
| CCCOc1ccc(-c2nonc2NC(=O)c2ccco2)cc1OCCC | -5.72% |
| Cc1cc(Br)cc(C)c1NC(=O)c1sc2ncn(Cc3cccc(F)c3)c(=O)c2c1C | 5.44% |
